The other results are listed elsewhere or left out.

This assay has as its target T1, OsWOX13 (Oryza sativa, UniProt Q5QMM3 1-267).
T1 sequence: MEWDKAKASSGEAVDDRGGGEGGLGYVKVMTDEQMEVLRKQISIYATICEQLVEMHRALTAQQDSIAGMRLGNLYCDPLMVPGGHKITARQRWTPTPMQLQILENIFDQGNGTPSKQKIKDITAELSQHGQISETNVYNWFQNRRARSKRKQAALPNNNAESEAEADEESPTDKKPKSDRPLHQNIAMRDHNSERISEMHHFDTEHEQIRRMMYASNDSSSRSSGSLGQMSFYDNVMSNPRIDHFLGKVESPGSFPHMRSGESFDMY
Put plainly: protein-binding microarray (RPBM); PBS, 2% BSA, 51.3 ng/ul salmon testes DNA, 50 uM zinc acetate, 200 nM TF, 25 C, 1 h; high values mean tight binding. The conditions noted are these: protein: recombinant; tags: N-terminal polyhistidine and DsRed monomer fusion (pET32a); label: CyDye5-dUTP incorporated in the synthesized complementary strand; 3' TTTTT single-stranded linker to array surface; dsDNA, one strand shown. In short, it runs like this:
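Binding signal is defined as the fluorescence intensity of each feature in arbitrary units, read on an Axon 4000B scanner. Transcription factors with N-terminal polyhistidine and DsRed fusions came from E. coli BL21-CodonPlus and were purified on Ni–NTA. They were incubated at 200 nM for 1 h at 25 °C on a custom Agilent array that had been made double-stranded with Cy5-dUTP, with 50 µM zinc acetate present, and the array was washed.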
On to “AATAAATGACAAGGAAAAGAGATTAAAGAACAAACAGTCCCGGAGTCACCTAGTGCAG”, for which the binding signal was 3740 fluorescence intensity (a.u.). Turning to “TTGATAAATTTGGTGTTAAATTTATAGTTTTATGAGAAAACGGAGTCACCTAGTGCAG”, the binding signal was 14400 fluorescence intensity (a.u.).

With “TTTAAAATTCTACAATTTATAAATTGCTCACCGCAGCAAACGGAGTCACCTAGTGCAG”, the binding signal was 3700 fluorescence intensity (a.u.). Regarding “TGCTGATGATGAGTTCTTCTGAAGCAACATGCCGACATGCCGGAGTCACCTAGTGCAG”, the binding signal was 5230 fluorescence intensity (a.u.). Regarding “ACGTCCCCAATCACACCGCCAAACCACCAAACTCGAATTTCGGAGTCACCTAGTGCAG”, the binding signal was 7940 fluorescence intensity (a.u.). Take “AATAATTAATTAATCATAGCTTGCAACTGCATATGTAGGGCGGAGTCACCTAGTGCAG”: the binding signal is 56700 fluorescence intensity (a.u.). Then “AATAATTACTTCCTCCCTTTCCCAAAATCCACCCACCCTTCGGAGTCACCTAGTGCAG”, with 18100 fluorescence intensity (a.u.); and “AACAATTATCCACAAATGGACAGACATCATCATCGGTCACCGGAGTCACCTAGTGCAG”, with 5760 fluorescence intensity (a.u.). Regarding “ATGTAATAACAATAAAATTATTATTTATAATTTTGTTTCACGGAGTCACCTAGTGCAG”, the binding signal was 11200 fluorescence intensity (a.u.). Regarding “ATAAACCACTAAATTTAGTAAACGAGACAATAATATGTCACGGAGTCACCTAGTGCAG”, the binding signal is 5030 fluorescence intensity (a.u.). In the case of “AATTTAGATTATTTACCACCTAATTTGCGTGCCTCAACTTCGGAGTCACCTAGTGCAG”, the binding signal was 15200 fluorescence intensity (a.u.). In the case of “CGGGCCGCCGTGATTGGTGCCGGTTCGAGGCGCCGTGATTCGGAGTCACCTAGTGCAG”, the binding signal was 12400 fluorescence intensity (a.u.).

Take “TAGGTGATGATTTCGTGTTTTGGTCCTGTATTTATGTTGGCGGAGTCACCTAGTGCAG”: the binding signal is 4820 fluorescence intensity (a.u.). For the sequence “GGGGATTAGGAGTTTATTGATGATGAGATTAAGATAGAAACGGAGTCACCTAGTGCAG”, the binding signal was 12500 fluorescence intensity (a.u.).

On to “TGCTAATGATGGATTAATTAGGCTTAATAAATTCGTCTCGCGGAGTCACCTAGTGCAG”, for which the binding signal was 54700 fluorescence intensity (a.u.). Regarding “CAGGCTGATTGGTTCTATGCCCCTGTTTACACTACTTGTGCGGAGTCACCTAGTGCAG”, the binding signal was 38500 fluorescence intensity (a.u.). Then “CACCAATAAAATCAATCATTATTTGAAGACTGGTTATATACGGAGTCACCTAGTGCAG”, with 18600 fluorescence intensity (a.u.); and “GATAATTAAGTTGGATATTAGGTCCATCGGCCAGAAATCTCGGAGTCACCTAGTGCAG”, with 7420 fluorescence intensity (a.u.); and “TAGGTGGACTTAATTTGTTGTAACCATTGGTAGGTGGACCCGGAGTCACCTAGTGCAG”, with 5000 fluorescence intensity (a.u.). Then “GATAGATAATTAGCCATATAATAATGAATATCTGAGAAACCGGAGTCACCTAGTGCAG”, with 17100 fluorescence intensity (a.u.).

“CAGGTAATTAGGAGGGAATTCCTCCTTTACTTCGTCTAAACGGAGTCACCTAGTGCAG”: the binding signal is 14100 fluorescence intensity (a.u.). With “AGCTGACTGGACCGCCACGTATGATCCAAATTCGCACTGACGGAGTCACCTAGTGCAG”, the binding signal was 3930 fluorescence intensity (a.u.). In the case of “TTAAACATTTGACGAACAATTAGTATAATATAATTTGAATCGGAGTCACCTAGTGCAG”, the binding signal is 5350 fluorescence intensity (a.u.). Turning to “GTAACAATTATTAAAATTCTTAATAAAAGTGCACTGGCATCGGAGTCACCTAGTGCAG”, the binding signal is 7060 fluorescence intensity (a.u.). Take “CTACAAAATTAAGCTGATAGCAACATCATTCACACATGGACGGAGTCACCTAGTGCAG”: the binding signal was 4120 fluorescence intensity (a.u.).

Consider “CCAATCTACAAATCATTGCAACCATCTCTCTCGTACTGTTCGGAGTCACCTAGTGCAG”, for which the binding signal was 3610 fluorescence intensity (a.u.). Consider “TTCTAGATTATAATTAAGGTTTTAGCTTCTTATTTGGTATCGGAGTCACCTAGTGCAG”, for which the binding signal was 33300 fluorescence intensity (a.u.).

For “TCCAAACCAAATTGGGACCTTGTATGCACTGGTGATACGTCGGAGTCACCTAGTGCAG”, the binding signal was 6180 fluorescence intensity (a.u.). For the sequence “AATCGGCGCAAATTGCTAATCATAATGTAATATACTCCCTCGGAGTCACCTAGTGCAG”, the binding signal was 18200 fluorescence intensity (a.u.). In the case of “GGCCAAATCTATTAAGATTGAGAGAAAACCAGTACAGGTGCGGAGTCACCTAGTGCAG”, the binding signal is 7220 fluorescence intensity (a.u.). In the case of “CTTACAGTCAAGACAGATAATATATGAGGCCCTTGGCTGGCGGAGTCACCTAGTGCAG”, the binding signal was 3520 fluorescence intensity (a.u.).

On to “TAAAGCACAAAACTCTATATAATTGACCATTAAATTGTTGCGGAGTCACCTAGTGCAG”, for which the binding signal is 4660 fluorescence intensity (a.u.). Regarding “CTAAAATCACCCCTCGTGTGATAGATTAACCGAACAATGCCGGAGTCACCTAGTGCAG”, the binding signal was 7580 fluorescence intensity (a.u.).

“CATAGATTTGTATATGGTTAGATTTGCTTCAAGATTCATGCGGAGTCACCTAGTGCAG”: the binding signal was 6850 fluorescence intensity (a.u.). “TCAGATTAAATAAAATAGATGATCTATATTAAGAATGCTGCGGAGTCACCTAGTGCAG”: the binding signal is 13100 fluorescence intensity (a.u.). “CATCCTAATTCCGATTGGGATTAATTTCGACAGCCCTGAACGGAGTCACCTAGTGCAG”: the binding signal is 7340 fluorescence intensity (a.u.).

With “ATCTCTGCTTAATTAATTTGTCCTCACTGAATTTGATTCTCGGAGTCACCTAGTGCAG”, the binding signal is 20000 fluorescence intensity (a.u.). For the sequence “GATACTTGATTAAACCGAGGCGACGGGCGTGGAGCATGAGCGGAGTCACCTAGTGCAG”, the binding signal was 14200 fluorescence intensity (a.u.). In the case of “GTTGATTACGTTGAGGTTGGTGGCGGAGAAGGCAGGGGCGCGGAGTCACCTAGTGCAG”, the binding signal was 19800 fluorescence intensity (a.u.). “CTGACTGAAAATTACCTCATCAGTGCTGAGTCTAGATCATCGGAGTCACCTAGTGCAG”: the binding signal is 24800 fluorescence intensity (a.u.). Take “AACATGATTAATATTTTATGCGTGACTTGTCTTTTAAATTCGGAGTCACCTAGTGCAG”: the binding signal is 7820 fluorescence intensity (a.u.).

As for “GTTAAATTTGAACTTGTATTTCATGAAACGATATATCATACGGAGTCACCTAGTGCAG”, the binding signal was 3920 fluorescence intensity (a.u.).

The values above are taken from article PMC7819943, “Rice protein-binding microarrays: a tool to detect cis-acting elements near promoter regions in rice”.
